The series can be described thus: Plasma concentration of mivorilaner in dogs given an oral liquid formulation daily (Example 1). Conditions: individual canines, days 0-29. It counts as in vivo. An excerpt: Methods: A pool of 14 dogs are to be preliminarily infested with ˜100 unfed adult C. felis in order to produce dogs that can suitably sustain a reliable infestation rate, defined as approximately 50% fleas being live at the end of a 48-hour period. The 12 dogs with the highest live flea counts are to be selected for inclusion in the study. The dogs are to be divided into a control group and a treatment group.
The dogs are to be housed individually during the study period and are to be fed a commercial dry dog food ration with ad libitum access to water.
Each dog in the treatment group is to receive by mouth a liquid formulation of isoxazoline. The dosage of 0.75 mg/kg is to be administered to the dogs on each of days 0-29.
Dogs in the control group are not to receive isoxazoline or any other tick control treatment. Each dog in the treatment group is to be offered its daily ration (dry food) and the individual doses of liquid formulation are to be administered after the individual dog has eaten at least 25% of its total daily ration. After receiving the dose of isoxazoline, the dogs are to be allowed to continue eating. This mimics incorporating the isoxazoline in feed. Each dog in the treatment group and the control group is to be experimentally infested with 50 adult ticks on test days 5, 12, 19, 28 and 35. Comb counts for live and moribund attached ticks are to be conducted on days 7, 14, 21, 30 and 37.

The structures appear in SMILES notation. Values joined by “and” are separate entries in the source; they are usually repeats but may differ in a detail not shown here. Equal entries are not always repeated. The source gives many values for each of these; only a part stands here.

As to `O=C(CNC(=O)c1sc(C2=NO[C@@](c3cc(Cl)c(F)c(Cl)c3)(C(F)(F)F)C2)c2c1CCC2)NCC(F)F` [Mivorilaner, 3-[(5S)-5-(3,5-dichloro-4-fluorophenyl)-5-(trifluoromethyl)-4,5-dihydroisoxazol-3-yl]-N-[2-[(2,2-difluoroethyl)amino]-2-oxoethyl]-5,6-dihydro-4H-cyclopenta[c]thiophene-1-carboxamide], the “Mivorilaner Concentration” value is, setting by setting: (Day 3, 0.75 mg/kg/day oral) 800 ng/mL and 798 ng/mL; (Day 7, 0.75 mg/kg/day oral) 1660 ng/mL; (Day 14, 0.75 mg/kg/day oral) 2370 ng/mL and 2060 ng/mL; (Day 21, 0.75 mg/kg/day oral) 2950 ng/mL and 2660 ng/mL; (Day 30, 0.75 mg/kg/day oral) 2790 ng/mL; (Day 37, 0.75 mg/kg/day oral) 1980 ng/mL and 1750 ng/mL.

Values taken from patent US20230413822A1, “ORAL CANINE FEED AND METHODS FOR C[…] INFESTATIONS IN A CANINE” (In the Bowl Animal Health, Inc., priority 2021, published 2023).
